Each structure is given as a SMILES string. Counter-ions that a name gives are not always drawn. Whole data set: some 1,900 compounds, median “cell viability of compound + 1 nM pemigatinib relative to pemigatinib-only (DMSO) wells” near 0.95, cut for the lowest 2% near 0.22. The list shows a part of the results.

The test system of the assay is PDC-DUC18828. The assay can be described thus: cell viability of compound + 1 nM pemigatinib relative to pemigatinib-only (DMSO) wells (fraction); PDC-DUC18828 is a patient-derived cholangiocarcinoma cell line; higher = less growth inhibition. The settings on record: first compound 1 µM; pemigatinib concentration 1 nM; 72 h. How it is done: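 Selleck Bioactive library screen in the patient-derived FGFR2 fusion-positive ICC cell line PDC-DUC18828 (500 cells/well). Each compound was tested at 1 uM with 1 nM pemigatinib, in triplicate, for 72 h. Viability was read by CellTiter-Glo and normalised to plate DMSO controls. Value is the paper's averaged normalised viability.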
As for `CN(C)CC(c1ccc(O)cc1)C1(O)CCCCC1` (configuration not stated) [Desvenlafaxine] + CCN1C(=O)N(c2c(F)c(OC)cc(OC)c2F)Cc2cnc3[nH]c(CN4CCOCC4)cc3c21 [pemigatinib], the cell viability is 0.909. The same measure for `CN(C)CC(c1ccc(O)cc1)C1(O)CCCCC1` (configuration not stated) [Desvenlafaxine Succinate] + CCN1C(=O)N(c2c(F)c(OC)cc(OC)c2F)Cc2cnc3[nH]c(CN4CCOCC4)cc3c21 [pemigatinib]: 0.942; for `O=C(NOCC(O)CO)c1cc(Br)c(F)c(F)c1Nc1ccc(I)cc1F` (configuration not stated) + CCN1C(=O)N(c2c(F)c(OC)cc(OC)c2F)Cc2cnc3[nH]c(CN4CCOCC4)cc3c21 [pemigatinib]: 0.814; for `O=C(Nc1ccccc1Br)N[C@@H]1CCN(c2ccc(C(F)(F)F)cn2)C1` + CCN1C(=O)N(c2c(F)c(OC)cc(OC)c2F)Cc2cnc3[nH]c(CN4CCOCC4)cc3c21 [pemigatinib]: 0.929. The same measure for `COc1ccc(S(=O)(=O)N(CCO)c2ccccc2CN(C)C/C=C/c2ccc(Cl)cc2)cc1` [KN-93 Phosphate] + CCN1C(=O)N(c2c(F)c(OC)cc(OC)c2F)Cc2cnc3[nH]c(CN4CCOCC4)cc3c21 [pemigatinib]: 0.988; for `CCC(=O)Nc1cccc(Oc2nc(Nc3ccc(N4CCN(C)CC4)cc3OC)ncc2Cl)c1` + CCN1C(=O)N(c2c(F)c(OC)cc(OC)c2F)Cc2cnc3[nH]c(CN4CCOCC4)cc3c21 [pemigatinib]: 0.994; for `C=CC(=O)Nc1cccc(Nc2nc(Nc3ccc(OCCOC)cc3)ncc2F)c1` + CCN1C(=O)N(c2c(F)c(OC)cc(OC)c2F)Cc2cnc3[nH]c(CN4CCOCC4)cc3c21 [pemigatinib]: 0.715. As for `N#Cc1c(NC(=O)c2cccc3ccccc23)sc2c1CCCC2` [JNK Inhibitor IX] + CCN1C(=O)N(c2c(F)c(OC)cc(OC)c2F)Cc2cnc3[nH]c(CN4CCOCC4)cc3c21 [pemigatinib], the cell viability turned out to be 0.284. Take `CCc1c(Cl)c(O)c(Cl)c(O)c1C(=O)O[C@H]1[C@H](O)[C@H](OC)[C@H](OC/C2=C\C=C\C[C@H](O)/C(C)=C/[C@H](CC)[C@@H](O[C@@H]3OC(C)(C)[C@@H](OC(=O)C(C)C)[C@H](O)[C@@H]3O)/C(C)=C/C(C)=C/C[C@@H]([C@@H](C)O)OC2=O)O[C@@H]1C` [Fidaxomicin] + CCN1C(=O)N(c2c(F)c(OC)cc(OC)c2F)Cc2cnc3[nH]c(CN4CCOCC4)cc3c21 [pemigatinib]: the cell viability was found to be 0.92.

Consider `Nc1ccn([C@@H]2CS[C@H](CO)O2)c(=O)n1` [Lamivudine] + CCN1C(=O)N(c2c(F)c(OC)cc(OC)c2F)Cc2cnc3[nH]c(CN4CCOCC4)cc3c21 [pemigatinib], for which the cell viability was found to be 0.972.

For the molecule `COc1ccccc1OCC(O)COC(N)=O` (configuration not stated) [Methocarbamol] + CCN1C(=O)N(c2c(F)c(OC)cc(OC)c2F)Cc2cnc3[nH]c(CN4CCOCC4)cc3c21 [pemigatinib], the cell viability turned out to be 1.02. Take `O=C1NCCCc2c1oc1ccc(O)cc21` + CCN1C(=O)N(c2c(F)c(OC)cc(OC)c2F)Cc2cnc3[nH]c(CN4CCOCC4)cc3c21 [pemigatinib]: the cell viability is 0.98. In the case of `COC(=O)Nc1nc2cc([S+]([O-])c3ccccc3)ccc2[nH]1` (configuration not stated) [Oxfendazole] + CCN1C(=O)N(c2c(F)c(OC)cc(OC)c2F)Cc2cnc3[nH]c(CN4CCOCC4)cc3c21 [pemigatinib], the cell viability is 0.92.

For `Cc1ccc2c(=O)c3cccc(CC(=O)O)c3oc2c1C` [DMXAA (Vadimezan)] + CCN1C(=O)N(c2c(F)c(OC)cc(OC)c2F)Cc2cnc3[nH]c(CN4CCOCC4)cc3c21 [pemigatinib], the cell viability came out at 1.03. Then `C[C@H]1O[C@@H](Oc2c(-c3cc(O)c(O)c(O)c3)oc3cc(O)cc(O)c3c2=O)[C@@H](O)[C@@H](O)[C@@H]1O` [Myricitrin] + CCN1C(=O)N(c2c(F)c(OC)cc(OC)c2F)Cc2cnc3[nH]c(CN4CCOCC4)cc3c21 [pemigatinib], with 0.933; and `C=C1/C(=C\C=C2/CCC[C@]3(C)[C@@H]([C@H](C)/C=C/[C@H](C)C(C)C)CC[C@@H]23)C[C@@H](O)C[C@@H]1O` [Doxercalciferol] + CCN1C(=O)N(c2c(F)c(OC)cc(OC)c2F)Cc2cnc3[nH]c(CN4CCOCC4)cc3c21 [pemigatinib], with 0.948. With `CCCCN1CCCCC1C(=O)Nc1c(C)cccc1C` (configuration not stated) [Bupivacaine HCl] + CCN1C(=O)N(c2c(F)c(OC)cc(OC)c2F)Cc2cnc3[nH]c(CN4CCOCC4)cc3c21 [pemigatinib], the cell viability worked out at 0.891. Then `CCOC(=O)c1[nH]c2cc(Cl)ccc2c1C(C(=O)NC(C)(C)C)N(C=O)Cc1ccc(Cl)cc1` (configuration not stated) + CCN1C(=O)N(c2c(F)c(OC)cc(OC)c2F)Cc2cnc3[nH]c(CN4CCOCC4)cc3c21 [pemigatinib], with 0.933; and `Cc1cc(Nc2nc(N[C@@H](C)c3ccc(F)cc3)c(C#N)cc2F)n[nH]1` + CCN1C(=O)N(c2c(F)c(OC)cc(OC)c2F)Cc2cnc3[nH]c(CN4CCOCC4)cc3c21 [pemigatinib], with 0.411. Then `CCOC(=O)c1c(CSc2ccccc2)n(C)c2cc(Br)c(O)c(CN(C)C)c12` [Arbidol HCl] + CCN1C(=O)N(c2c(F)c(OC)cc(OC)c2F)Cc2cnc3[nH]c(CN4CCOCC4)cc3c21 [pemigatinib], with 0.973; and `CCN1CCN(Cc2ccc(-c3cc4c(N[C@H](C)c5ccccc5)ncnc4[nH]3)cc2)CC1` + CCN1C(=O)N(c2c(F)c(OC)cc(OC)c2F)Cc2cnc3[nH]c(CN4CCOCC4)cc3c21 [pemigatinib], with 0.92; and `Cc1nc(Nc2ncc(C(=O)Nc3c(C)cccc3Cl)s2)cc(N2CCN(CCO)CC2)n1` [Dasatinib] + CCN1C(=O)N(c2c(F)c(OC)cc(OC)c2F)Cc2cnc3[nH]c(CN4CCOCC4)cc3c21 [pemigatinib], with 0.311. The same measure for `CC(C(=O)O)c1ccc2c(c1)CC(=O)c1ccccc1S2` (configuration not stated) [Zaltoprofen] + CCN1C(=O)N(c2c(F)c(OC)cc(OC)c2F)Cc2cnc3[nH]c(CN4CCOCC4)cc3c21 [pemigatinib]: 0.968; for `Oc1cc2c(cc1O)[C@@H]1c3ccc(O)c(O)c3OC[C@]1(O)C2` [Hematoxylin] + CCN1C(=O)N(c2c(F)c(OC)cc(OC)c2F)Cc2cnc3[nH]c(CN4CCOCC4)cc3c21 [pemigatinib]: 0.897; for `COc1ccc(CC2c3cc(OC)c(OC)cc3CC[N+]2(C)CCC(=O)OCCCCCOC(=O)CC[N+]2(C)CCc3cc(OC)c(OC)cc3C2Cc2ccc(OC)c(OC)c2)cc1OC` (configuration not stated) [Atracurium Besylate] + CCN1C(=O)N(c2c(F)c(OC)cc(OC)c2F)Cc2cnc3[nH]c(CN4CCOCC4)cc3c21 [pemigatinib]: 0.989. As for `CC(=O)[C@H]1CC[C@H]2[C@@H]3CC=C4C[C@@H](O)CC[C@]4(C)[C@H]3CC[C@]12C` [Pregnenolone] + CCN1C(=O)N(c2c(F)c(OC)cc(OC)c2F)Cc2cnc3[nH]c(CN4CCOCC4)cc3c21 [pemigatinib], the cell viability is 1.

Regarding `Cc1nc(-c2ccc(OCC(C)C)c(C#N)c2)sc1C(=O)O` [Febuxostat] + CCN1C(=O)N(c2c(F)c(OC)cc(OC)c2F)Cc2cnc3[nH]c(CN4CCOCC4)cc3c21 [pemigatinib], the cell viability was 0.996. The same measure for `CN(C)CCCN1c2ccccc2Sc2ccc(Cl)cc21` [Chlorpromazine HCl] + CCN1C(=O)N(c2c(F)c(OC)cc(OC)c2F)Cc2cnc3[nH]c(CN4CCOCC4)cc3c21 [pemigatinib]: 0.935. Then `C[C@H](Nc1ncnc2[nH]cnc12)c1cc2ccc(F)cc2nc1-c1ccccn1` + CCN1C(=O)N(c2c(F)c(OC)cc(OC)c2F)Cc2cnc3[nH]c(CN4CCOCC4)cc3c21 [pemigatinib], with 0.858.

In the case of `Nc1ccc(C(=O)Nc2cccc(-c3nc(N4CCOCC4)c4oc5ncccc5c4n3)c2)cn1` + CCN1C(=O)N(c2c(F)c(OC)cc(OC)c2F)Cc2cnc3[nH]c(CN4CCOCC4)cc3c21 [pemigatinib], the cell viability is 0.704. `Nc1nc(=S)c2ncn([C@H]3C[C@H](O)[C@@H](CO)O3)c2[nH]1` + CCN1C(=O)N(c2c(F)c(OC)cc(OC)c2F)Cc2cnc3[nH]c(CN4CCOCC4)cc3c21 [pemigatinib]: the cell viability is 0.893.

Consider `O=c1ccc2ccccc2o1` [Coumarin] + CCN1C(=O)N(c2c(F)c(OC)cc(OC)c2F)Cc2cnc3[nH]c(CN4CCOCC4)cc3c21 [pemigatinib], for which the cell viability worked out at 1. The same measure for `Cc1nc(-c2cccnc2)sc1C(=O)Nc1ccccc1-c1cn2c(CN3CCOCC3)csc2n1` + CCN1C(=O)N(c2c(F)c(OC)cc(OC)c2F)Cc2cnc3[nH]c(CN4CCOCC4)cc3c21 [pemigatinib]: 0.898; for `COc1cc([C@@H]2c3cc4c(cc3[C@@H](O[C@@H]3O[C@@H]5CO[C@@H](c6cccs6)O[C@H]5[C@H](O)[C@H]3O)[C@H]3COC(=O)[C@H]23)OCO4)cc(OC)c1O` [Teniposide] + CCN1C(=O)N(c2c(F)c(OC)cc(OC)c2F)Cc2cnc3[nH]c(CN4CCOCC4)cc3c21 [pemigatinib]: 0.194; for `O=C1NC(=O)/C(=C/c2ccc3c(c2)OC(F)(F)O3)S1` + CCN1C(=O)N(c2c(F)c(OC)cc(OC)c2F)Cc2cnc3[nH]c(CN4CCOCC4)cc3c21 [pemigatinib]: 1.01. The same measure for `O=c1[nH]cnc2c1ncn2[C@@H]1O[C@H](CO)[C@@H](O)[C@H]1O` [Inosine] + CCN1C(=O)N(c2c(F)c(OC)cc(OC)c2F)Cc2cnc3[nH]c(CN4CCOCC4)cc3c21 [pemigatinib]: 0.963; for `CCOc1ccccc1OC(c1ccccc1)C1CNCCO1` (configuration not stated) [Reboxetine mesylate] + CCN1C(=O)N(c2c(F)c(OC)cc(OC)c2F)Cc2cnc3[nH]c(CN4CCOCC4)cc3c21 [pemigatinib]: 0.96.

These data come from the supplement of paper PMC9588766.
